Results taken from PubChem BioAssay AID1508642 (National Center for Advancing Translational Sciences (NCATS), 2021).
The campaign covered roughly 43,000 compounds. About 200 (0.47%) were called active. Not shown: some 12% with an inconclusive outcome. Calls follow the shape of the dose curve; as a rule, active = well fitted cell-killing curve with a large enough effect; inconclusive = small, poorly fitted or top-dose-only effect, or effect the other way; inactive = flat fitted curve, though single readings scatter. The list shows a part of the results.

Test: Cell viability qHTS assay in S16 Pmp22-F2sN cells; also: nearly all actives have a fitted effect of over 65% in size
Conditions: S16 Pmp22-F2sN Schwann cells (luciferase reporters placed in the Pmp22 gene) viability, CellTiter-Glo, 24 h; series mostly up to 57.5 µM; activity change, negative = cytotoxicity: at the top concentration
How it was run: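 Luminescence from CellTiter-Glo, read by CCD camera after a 15 min room-temperature incubation, served as the viability signal. Reporter Schwann cells (S16 Pmp22-F2sN) had been treated with pin-transferred compounds for 24 h at 37C.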
% is scaled to controls: 0 for no effect and ±100 for the full control effect.

| SMILES | activity change, negative = cytotoxicity |
| --- | --- |
| O=C(Nc1cccc(C(F)(F)F)c1)C1CCN(S(=O)(=O)c2cccc3nsnc23)CC1 | inactive: 16.9% |
| O=C(Nc1ccc(OC(F)(F)F)cc1)C(Cc1ccccc1)NS(=O)(=O)c1cccc2nsnc12 (stereo not given) | inactive: -19.2% |
| CC(C)Cc1nn2c(=O)cc(COC(=O)CNC(=O)c3ccc(C(C)(C)C)cc3)nc2s1 | inactive: -17.5% |
| Cc1ccc(C)c(CNC(=O)c2ccc3c(c2)nc2n3CCOC2)c1 | inactive: 14.3% |
| Cc1ccc(S(=O)(=O)c2nnn3c2nc(NCc2ccc4c(c2)OCO4)c2sccc23)cc1 | inactive: -13% |
| CCOC(=O)c1c(Nc2ccc(O)cc2)nnc(-c2ccccc2)c1-c1ccccc1 | inactive: 5.32% |
| COC(=O)c1ccc(C2c3c(oc4ccc(C)cc4c3=O)C(=O)N2Cc2ccc3c(c2)OCO3)cc1 (stereo not given) | inactive: -0.896% |
| O=C(Cc1ccccc1)Nc1c(C(=O)c2ccccc2)oc2ccccc12 | inactive: 13.2% |
| COc1ccc(CNC(=O)c2cc3cc4ccc(C)cc4nc3o2)cc1 | inactive: -4.13% |
| CCc1ccc(C(=O)COC(=O)C(Cc2c[nH]c3ccccc23)NC(=O)c2ccc(CC)cc2)cc1 (stereo not given) | inactive: 11.3% |
| Cc1ccc(NC(=O)CSc2nnc(-c3nnn(-c4ccc(F)cc4)c3C)o2)cc1Br | inactive: 19.4% |
| Cc1ccc(OCC(=O)Nc2nonc2-c2ccc(C)c(C)c2)cc1C | inactive: 0.372% |
| Cc1ccc(NC(=O)CN2C(=O)COc3ccc(S(=O)(=O)N4CCCCCC4)cc32)cc1Cl | inactive: 0.908% |
| CCCCn1c(=NC(=O)C(C)(C)Oc2ccc(Cl)cc2)c(C(=O)OCC)cc2c(=O)n3ccccc3nc21 | inactive: 9.11% |
| COc1cccc(N2CCN(C(=O)c3cc4c(s3)-c3c(C)cccc3OC4)CC2)c1 | inactive: -0.0524% |
| O=C(Nc1ccc(Br)cc1)c1cc(-c2cccs2)nc2ccccc12 | inactive: -26.9% |
| CC(NC(=O)C1CCN(S(=O)(=O)c2ccc(F)cc2)CC1)c1ccccc1 (stereo not given) | inactive: -5.76% |
| O=C1CSC2(C(=O)N(Cc3ccccc3F)c3ccccc32)N1c1cccc(C(F)(F)F)c1 (stereo not given) | inactive: 22.4% |
| O=C(Cn1ncc2c3ccccc3n(Cc3ccc(Cl)cc3)c2c1=O)NCCC1=CCCCC1 | inactive: 0.0531% |
| CN(C)CCNC(=O)C1CCN(c2ncnc3c2nc2n3CCCCC2)CC1 | inactive: -1.59% |

| SMILES | activity change, negative = cytotoxicity |
| --- | --- |
| COc1ccc(-c2cc(C(=O)Oc3ccc(C)cc3)c3ccccc3n2)cc1 | inactive: 10.4% |
| CC(C)Oc1ccc(C(=O)N2CCC(c3nc4ccccc4o3)CC2)cc1 | inactive: -3.06% |
| CC(C)c1ccc(NC(=O)CSC2=Nc3ccccc3C3=NC(CC(=O)NCc4cccs4)C(=O)N23)cc1 (stereo not given) | inactive: -18.2% |
| CC(=O)Nc1ccc(NC(=O)CSc2nccn2Cc2ccc3c(c2)OCO3)cc1 | inactive: -6.85% |
| COc1cc(NC(=O)CSc2ncc3c(n2)-c2ccc(Cl)cc2N(Cc2ccccc2)S3(=O)=O)cc(OC)c1 | inactive: -3.26% |
| Cc1ccccc1NC(=O)c1cn(-c2ccccc2)nc1-c1ccccc1 | inactive: -1.28% |
| Cc1ccccc1-c1ccnc2[nH]n(-c3ccccc3)c(=O)c12 | inactive: 20% |
| O=S(=O)(NCC(c1ccco1)N1CCOCC1)c1ccc(Br)cc1 (stereo not given) | inactive: 13.6% |
| COc1ccc(OC)c(CN2CCN(S(=O)(=O)c3ccccc3)CC2)c1 | inactive: -8.21% |
| CCCn1c2ccccc2c2cnn(CC(=O)NCCCN3CCCCC3)c(=O)c21 | inactive: -8.54% |
| CCOc1ccc(NC(=O)c2sc3nc4c(c(-c5ccccc5)c3c2N)C(=O)CC(C)(C)C4)cc1 | inactive: -0.289% |
| Cc1ccc(S(=O)(=O)c2cnc(SCC(=O)Nc3ccc4c(c3)OCCO4)[nH]c2=O)cc1Cl | inactive: 11.3% |
| CCOc1cc(C2C(C(=O)OC)=C(C)NC3=C2C(=O)c2ccccc23)ccc1OC (stereo not given) | inactive: -4.88% |
| CCOC(=O)c1c(NC(=O)CSc2cn(CCNC(=O)c3cccc(C(F)(F)F)c3)c3ccccc23)sc2c1CCC2 | inactive: 0.629% |
| Cc1ccc2oc(C(=O)N(Cc3ccc(N(C)C)cc3)CC3CCCO3)c(C)c2c1 (stereo not given) | inactive: -20.2% |
| CCc1nnc2c(N3CCN(c4cccc(C(F)(F)F)c4)CC3)nc3ccccc3n12 | inactive: -16.2% |
| COc1ccc(CNC(=O)Cn2c(=O)c3cccn3c3ccccc32)cc1 | inactive: 0.054% |
| CN1CCN(CCCNC(=O)c2cnn(-c3ccc(F)cc3)c2-n2cccc2)CC1 | inactive: 15.3% |
| CNc1ccc(-c2nc(-c3ccccc3C)no2)cc1[N+](=O)[O-] | inactive: 15.3% |
| c1ccc(-c2cc3ncc4c(n3n2)-c2ccccc2OC4)cc1 | inactive: -1.86% |

| SMILES | activity change, negative = cytotoxicity |
| --- | --- |
| O=C(Nc1c(C(=O)N2CCN(c3ccccc3F)CC2)oc2ccccc12)c1ccco1 | inactive: -9.21% |
| COc1cccc(CNc2ncnc3onc(C)c23)c1 | inactive: -13% |
| O=C(Cn1c(=O)n(Cc2ccco2)c(=O)c2oc3ccccc3c21)Nc1ccc(F)c(Cl)c1 | inactive: -3.54% |
| COc1ccc(N(CC(=O)N2CCc3ccccc3C2)S(=O)(=O)c2ccc(C)cc2)cc1Cl | inactive: 7.5% |
| CCCc1ccc(S(=O)(=O)N2CCC(c3nnnn3-c3ccc(OC)cc3)CC2)cc1 | inactive: -4.7% |
| Cc1oc2cc3oc(=O)c(CC(=O)N4CCCCC4)c(C)c3cc2c1C | inactive: 5.4% |
| CCOC(=O)c1ccc(NC(=O)c2cn(-c3ccccc3)nc2-c2ccc(C)cc2)cc1 | inactive: 0.0191% |
| N#CC1=C2SCN(C3CCCCC3)CN2C(=O)CC1c1ccc(Br)cc1 (stereo not given) | inactive: 28.2% |
| CCOc1cc(C#N)c(NC(=O)c2ccc(OC)c(S(=O)(=O)N3CCN(c4ccccc4)CC3)c2)cc1OCC | inactive: 0.39% |
| CCOc1ccc(-c2cc(NC(=O)c3cccc(Cl)c3)c(C(=O)OC)s2)cc1 | inactive: -9.51% |
| CNC(=O)C(=O)NCC(c1ccc2c(c1)OCO2)N1CCOCC1 (stereo not given) | inactive: -17.3% |
| COc1ccc(CNC(=O)C2=C(C)C(=O)OC23CCCCC3)cc1OC | inactive: 21.7% |
| O=C(c1ccc(F)cc1F)N1CCC(c2nc(-c3ccc(S(=O)(=O)N4CCCC4)cc3)no2)CC1 | inactive: 15.8% |
| CC1=C(C(=O)Nc2ccccc2)C(c2ccc(C)cc2)n2nc(SCc3ccccc3C)nc2N1 (stereo not given) | inactive: 3.66% |
| CCCOc1ccc(C(=O)Nc2nonc2-c2ccc(OCC)cc2)cc1 | inactive: 10.8% |
| Cc1ccc(OCCCCn2cnc3ccccc32)cc1 | inactive: -26.4% |
| COc1ccc(NC(=O)c2nnn(CC(=O)Nc3c(C)cc(C)cc3C)c2N)cc1OC | inactive: -0.0729% |
| Cc1ccc(C)c(CN2C(=O)c3ccccc3S(=O)(=O)c3ccc(C(=O)Nc4cc(F)ccc4F)cc32)c1 | inactive: 7.05% |
| COc1ccc(CNC(=O)CN(c2ccc(C)cc2)S(=O)(=O)c2c(C)noc2C)cc1 | inactive: 9.09% |
| COc1ccc(CNC(=O)C(CCSC)NS(=O)(=O)c2ccc3c(c2)oc(=O)n3C)cc1 (stereo not given) | inactive: 3.36% |
